Reference: the supplement of paper PMC7826260
The list shows a part of the results. Each Rep nickase domain was tested in vitro on the same pool of single strands (1 h at 37 °C, 3 µM enzyme); the outer parts of the 90-letter strands are left off. Numbers give uncut DNA relative to the enzyme-free pool, as log2; uncut sequences lie near 0, cut ones below; no hit call is given. Because reads are shares of a total, they shift together; uncut strands gain when others are lost, and binding without cutting may add a little.

How the values were obtained:
Experiment in all cases: uncleaved DNA left, log2 of reads against the no-enzyme library (log2 ratio); higher = less cleavage (more negative = more Rep cleavage of the k-mer); sequences stand for … in CTCGTCCG…ACCGGAGA
[1] = system: T1, Rep nickase domain of Muscovy duck circovirus
T1 sequence (Rep 1-111, printed without the tag): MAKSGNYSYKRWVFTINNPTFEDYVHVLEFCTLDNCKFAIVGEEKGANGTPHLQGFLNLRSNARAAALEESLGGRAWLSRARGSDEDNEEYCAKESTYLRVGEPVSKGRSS
Protocol: (§1)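 A pool of 90-nt single-stranded DNAs with seven random bases just before the constant AC of the nick site (name = the seven bases) was cut by 3 µM recombinant His6-SUMO-tagged Rep nickase domain (300 nM DNA, 50 mM HEPES pH 8.0, 50 mM NaCl, 1 mM MnCl2, 1 h, 37 °C, three replicates). Uncut DNA was amplified and sequenced.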

[2] = system: T2, Rep nickase domain of banana bunchy top virus
T2 sequence (Rep 1-94, printed without the tag): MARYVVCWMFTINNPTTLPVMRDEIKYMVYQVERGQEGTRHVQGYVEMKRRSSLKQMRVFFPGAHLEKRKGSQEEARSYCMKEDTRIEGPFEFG
Protocol: as §1

[3] = system: T3, Rep nickase domain of cabbage leaf curl virus
T3 sequence (Rep 1-116, printed without the tag): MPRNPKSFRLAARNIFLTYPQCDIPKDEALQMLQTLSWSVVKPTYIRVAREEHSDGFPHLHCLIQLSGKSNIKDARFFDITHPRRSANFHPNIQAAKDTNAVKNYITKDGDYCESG
Protocol: as §1

[4] = system: T4, Rep nickase domain of chickpea chlorotic dwarf virus
T4 sequence (Rep 1-124, printed without the tag): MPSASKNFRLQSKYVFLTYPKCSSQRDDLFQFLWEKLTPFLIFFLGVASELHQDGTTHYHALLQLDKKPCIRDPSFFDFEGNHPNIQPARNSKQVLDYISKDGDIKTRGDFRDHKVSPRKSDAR
Protocol: as §1

[5] = system: T5, Rep nickase domain of faba bean necrotic yellows virus
T5 sequence (Rep 1-98, printed without the tag): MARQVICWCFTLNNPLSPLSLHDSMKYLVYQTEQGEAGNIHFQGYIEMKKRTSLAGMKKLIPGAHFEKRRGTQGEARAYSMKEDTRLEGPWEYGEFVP
Protocol: as §1

[6] = system: T6, Rep nickase domain of maize striate mosaic virus
T6 sequence (Rep 1-117, printed without the tag): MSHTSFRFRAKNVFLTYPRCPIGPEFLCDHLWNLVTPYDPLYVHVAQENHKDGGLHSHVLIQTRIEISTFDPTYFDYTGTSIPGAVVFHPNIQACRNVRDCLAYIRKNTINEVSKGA
Protocol: as §1

[7] = system: T7, Rep nickase domain of porcine circovirus 2
T7 sequence (Rep 2-116, printed without the tag): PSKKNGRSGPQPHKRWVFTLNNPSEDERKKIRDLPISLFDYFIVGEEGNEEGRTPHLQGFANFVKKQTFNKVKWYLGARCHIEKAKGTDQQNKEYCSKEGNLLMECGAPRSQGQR
Protocol: as §1

[8] = system: T8, Rep nickase domain of tomato golden mosaic virus
T8 sequence (Rep 1-124, printed without the tag): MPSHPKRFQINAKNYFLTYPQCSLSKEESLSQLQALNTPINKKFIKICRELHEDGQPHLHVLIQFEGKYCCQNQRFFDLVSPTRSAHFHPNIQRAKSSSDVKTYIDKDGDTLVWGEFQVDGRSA
Protocol: as §1

[9] = system: T9, Rep nickase domain of tomato yellow leaf curl virus
T9 sequence (Rep 1-136, printed without the tag): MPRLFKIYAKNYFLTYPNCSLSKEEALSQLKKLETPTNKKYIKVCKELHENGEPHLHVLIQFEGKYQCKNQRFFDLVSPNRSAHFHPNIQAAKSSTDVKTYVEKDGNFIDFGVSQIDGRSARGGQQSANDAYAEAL
Protocol: as §1

[10] = system: T10, Rep nickase domain of wheat dwarf virus
T10 sequence (Rep 1-137, printed without the tag): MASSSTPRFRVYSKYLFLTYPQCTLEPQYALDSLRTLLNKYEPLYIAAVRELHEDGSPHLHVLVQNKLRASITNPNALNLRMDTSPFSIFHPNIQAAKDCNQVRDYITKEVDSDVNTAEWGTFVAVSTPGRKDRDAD
Protocol: as §1

Sequence	uncleaved DNA left (log2) [1]	uncleaved DNA left (log2) [2]	uncleaved DNA left (log2) [3]	uncleaved DNA left (log2) [4]	uncleaved DNA left (log2) [5]	uncleaved DNA left (log2) [6]	uncleaved DNA left (log2) [7]	uncleaved DNA left (log2) [8]	uncleaved DNA left (log2) [9]	uncleaved DNA left (log2) [10]
CAGAAAC	0.124	-0.034	0.0549	-0.266	0.144	-0.625	-0.000894	0.153	0.0497	0.0807
GTGCTTT	0.0175	0.0335	0.372	0.631	0.0272	1.52	0.145	0.00643	0.102	0.054
CAAGGAA	-0.000232	0.0669	0.307	1.36	0.00652	1.52	0.117	0.0402	-0.181	0.148
TGCTTGT	-0.14	-0.201	-0.105	-0.309	-0.139	-0.683	-0.493	-0.0714	-0.104	-0.0909
TCTCTGA	-0.105	-0.0679	0.176	-0.014	-0.0266	-0.0248	-0.0429	-0.0132	-0.109	0.0619
TGCGGCT	0.057	-0.147	0.0149	0.282	-0.144	1.16	0.0971	0.0161	-0.119	-0.0282
ATACTCC	-0.00251	-0.121	-0.051	-0.141	0.0242	0.62	0.0995	-0.0189	-0.088	-0.118
CACTCCT	-1.16	-2.52	-0.885	-3.08	-0.184	-0.421	-3.31	-0.254	-0.142	-0.192
AAGATTC	0.195	0.201	0.0961	-0.228	0.181	-0.331	0.0706	0.0162	0.0151	0.149
TTGTTTA	-0.0607	-0.172	0.093	-0.767	-0.17	-0.157	-0.3	-0.033	-0.0723	-0.0831
TGTTGCA	-0.156	-0.16	-0.73	-0.897	-0.0919	-1.2	-0.000763	-0.161	-0.0526	-0.224
TCGCGCT	-0.07	-0.171	-0.474	-0.918	-0.0275	-0.85	-0.147	-0.119	-0.117	-0.106
AAACCTA	0.048	0.0895	-0.116	-2.46	0.0341	-0.571	-0.615	-0.00257	0.053	0.0197
GAGTTAC	-0.0213	-0.0987	0.172	-0.0839	-0.133	1.08	-0.836	-0.0373	-0.0173	-0.0951
ATGGACA	0.00168	0.0147	0.638	1.5	-0.124	1.64	0.13	-0.0386	0.113	0.23
CGCGAAT	0.0229	-0.0253	-0.125	0.0627	-0.0145	-0.0819	-0.0689	-0.0582	-0.136	-0.0654
CAACCCT	-0.19	-0.0591	-1.17	-2.75	0.156	-0.599	-1.63	-0.0412	0.0622	-0.192
AGCGACT	0.081	0.202	-0.0393	0.683	0.0202	1.71	0.181	0.12	0.0206	0.27
CGTACGT	0.0282	-0.128	0.137	0.239	-0.0184	0.212	-0.0156	-0.0781	0.0792	0.032
CTACACG	0.0492	-0.0973	-1.17	-0.955	-0.0417	-1.16	0.105	-0.0179	-0.203	-0.121
TTGACTG	-0.0256	-0.0196	-0.0607	0.526	-0.108	1.5	-0.0185	-0.078	-0.0998	-0.0687
GTGAGGT	-0.102	-0.0483	0.444	1.06	-0.0839	1.64	0.16	-0.016	0.0444	0.0407
ATAACCG	0.0113	0.0222	-0.754	-0.926	0.112	-0.882	0.111	0.0758	-0.0226	-0.00945
ATACTGT	0.0466	-0.0632	-0.155	-0.159	0.0714	0.208	0.065	0.0404	-0.0911	0.076
CCCCCTG	-0.0931	-0.000193	-0.276	-0.433	-0.173	-0.347	-0.208	-0.107	-0.158	-0.0231
CGATACG	-0.0975	0.0616	-0.697	-0.531	-0.0361	-1.04	-0.0185	-0.199	-0.075	-0.0139
GGAACAC	0.0573	0.0617	0.85	1.97	-0.0222	2.16	0.191	-0.0636	0.0135	0.221
GAAGACC	9.39e-05	0.137	0.377	0.742	-0.0225	0.59	0.107	0.0566	0.116	0.179
TGCCATA	-0.0638	0.181	0.12	-0.35	0.0914	-0.228	0.176	-0.0255	0.305	0.189
ACGACAC	-0.0653	0.000655	0.00519	0.295	0.00387	-0.0972	0.115	–	0.0698	0.0278
